Test results from the supplement of paper PMC4967469.
The IC50 comes from the fitted curve, where viability falls to half of the control; a limit (>, <) means that the fit lies beyond the doses tested. AUC, from the same fit, is the share of area under the viability curve across the 256-fold dose range; values near 1 show little effect. For part of these data: Where the top dose is marked as inferred, it is not printed in the source and was worked back from the curve model.

What was measured:
Test in all cases: Viability of human cancer cell lines after 72 h of drug (GDSC screen)
17-AAG = compound: C=CCNC1=C2C[C@@H](C)C[C@H](OC)[C@H](O)[C@@H](C)/C=C(\C)[C@H](OC(N)=O)[C@@H](OC)/C=C\C=C(/C)C(=O)NC(=CC1=O)C2=O [17-AAG]; settings: top dose 1 µM
Procedure: (§1)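 Human cancer cell lines in 384-well plates, medium with 10% serum, drug for 72 h over a 256-fold dose range (nine 2-fold or five 4-fold steps up to the top dose). Adherent lines were fixed and stained with the nucleic acid dye Syto60, suspension lines read with resazurin; signal relative to control wells, capped at 0 and 100%. One two-parameter sigmoid per drug and line, fitted in a mixed model over all curves with the slope shared within a line.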

TG101348 = compound: Cc1cnc(Nc2ccc(OCCN3CCCC3)cc2)nc1Nc1cccc(S(=O)(=O)NC(C)(C)C)c1 [TG101348]; settings: top dose 10.24 µM
Procedure: as §1

CCT018159 = compound: CCc1cc(-c2n[nH]c(C)c2-c2ccc3c(c2)OCCO3)c(O)cc1O [CCT018159]; settings: top dose 10 µM; top dose inferred
Procedure: as §1

BIX02189 = compound: CN(C)Cc1cccc(N=C(c2ccccc2)c2c(O)[nH]c3cc(C(=O)N(C)C)ccc23)c1 [BIX02189]; settings: top dose 20 µM; top dose inferred
Procedure: as §1

Vismodegib = compound: CS(=O)(=O)c1ccc(C(=O)Nc2ccc(Cl)c(-c3ccccn3)c2)c(Cl)c1 [Vismodegib]; settings: top dose 10 µM; top dose inferred
Procedure: as §1

Dimethyloxalylglycine = compound: COC(=O)CNC(=O)C(=O)OC [Dimethyloxalylglycine]; settings: top dose 4000 µM; top dose inferred
Procedure: as §1

OSI-027 = compound: COc1cccc2cc(-c3nc([C@H]4CC[C@H](C(=O)O)CC4)n4ncnc(N)c34)[nH]c12 [OSI-027]; settings: top dose 20 µM
Procedure: as §1

VX-11e = compound: Cc1cnc(Nc2ccc(F)cc2Cl)nc1-c1c[nH]c(C(=O)N[C@H](CO)c2cccc(Cl)c2)c1 [VX-11e]; settings: top dose 5.12 µM; top dose inferred
Procedure: as §1

UNC1215 = compound: O=C(c1ccc(C(=O)N2CCC(N3CCCC3)CC2)c(Nc2ccccc2)c1)N1CCC(N2CCCC2)CC1 [UNC1215]; settings: top dose 1 µM; top dose inferred
Procedure: as §1

Cell Line	AUC (17-AAG)	IC50 (17-AAG)	AUC (TG101348)	IC50 (TG101348)	AUC (CCT018159)	IC50 (CCT018159)	AUC (BIX02189)	IC50 (BIX02189)	AUC (Vismodegib)	IC50 (Vismodegib)	AUC (Dimethyloxalylglycine)	IC50 (Dimethyloxalylglycine)	AUC (OSI-027)	IC50 (OSI-027)	AUC (VX-11e)	IC50 (VX-11e)	AUC (UNC1215)	IC50 (UNC1215)
SCC-9 (head and neck, adherent)	0.647	0.179 µM	0.821	8.19 µM	0.865	> 10 µM	0.941	> 20 µM	0.981	> 10 µM	0.384	109 µM	0.305	0.301 µM	0.833	4.69 µM	0.967	> 1 µM
NB17 (neuroblastoma, adherent)	0.857	> 1 µM	0.781	4.92 µM	0.903	> 10 µM	0.958	> 20 µM	0.98	> 10 µM	0.525	295 µM	0.519	1.42 µM	0.956	> 5.12 µM	0.98	> 1 µM
OVCAR-5 (ovary, adherent)	0.524	0.0737 µM	0.813	6.97 µM	0.854	> 10 µM	0.955	> 20 µM	0.982	> 10 µM	0.532	311 µM	0.816	14 µM	0.92	> 5.12 µM	0.967	> 1 µM
CAL-29 (bladder, adherent)	0.374	0.0273 µM	0.936	> 10.2 µM	0.898	> 10 µM	0.962	> 20 µM	0.968	> 10 µM	0.274	53.7 µM	0.565	1.91 µM	0.965	> 5.12 µM	0.981	> 1 µM
L-540 (Hodgkin lymphoma, suspension)	0.905	> 1 µM	0.773	3.54 µM	0.873	7.86 µM	0.944	> 20 µM	0.981	> 10 µM	0.505	257 µM	0.291	0.348 µM	0.982	> 5.12 µM	0.989	> 1 µM
NCI-H69 (small cell lung carcinoma, suspension)	0.984	> 1 µM	0.841	8.33 µM	0.954	> 10 µM	0.984	> 20 µM	0.986	> 10 µM	0.887	> 4000 µM	0.45	0.899 µM	0.981	> 5.12 µM	0.98	> 1 µM
HCC1143 (breast, adherent)	0.642	0.181 µM	0.797	7.25 µM	0.951	> 10 µM	0.972	> 20 µM	0.948	> 10 µM	0.902	> 4000 µM	0.731	7.54 µM	0.811	4.19 µM	0.977	> 1 µM
HT (B-cell lymphoma, suspension)	0.974	> 1 µM	0.876	8.75 µM	0.99	> 10 µM	0.959	> 20 µM	0.988	> 10 µM	0.407	142 µM	0.591	2.17 µM	0.982	> 5.12 µM	0.982	> 1 µM
HOP-62 (lung adenocarcinoma, adherent)	0.6	0.117 µM	0.858	8.37 µM	0.911	> 10 µM	0.929	> 20 µM	0.986	> 10 µM	0.429	160 µM	0.584	2.12 µM	0.972	> 5.12 µM	0.984	> 1 µM
U-87-MG (glioma, adherent)	0.569	0.0995 µM	0.944	> 10.2 µM	0.955	> 10 µM	0.97	> 20 µM	0.983	> 10 µM	0.469	202 µM	0.433	0.791 µM	0.983	> 5.12 µM	0.983	> 1 µM
SBC-1 (small cell lung carcinoma, suspension)	0.985	> 1 µM	0.891	> 10.2 µM	0.987	> 10 µM	0.983	> 20 µM	0.961	> 10 µM	0.77	1470 µM	0.133	0.0924 µM	0.974	> 5.12 µM	0.967	> 1 µM
SUP-M2 (anaplastic large cell lymphoma, suspension)	0.816	0.396 µM	0.626	1.3 µM	0.847	4.88 µM	0.994	> 20 µM	0.96	> 10 µM	0.655	599 µM	0.029	< 0.0781 µM	0.968	> 5.12 µM	0.994	> 1 µM
T47D (breast, adherent)	0.954	> 1 µM	0.824	> 10.2 µM	0.909	> 10 µM	0.893	> 20 µM	0.973	> 10 µM	0.915	> 4000 µM	0.217	0.114 µM	0.947	> 5.12 µM	0.97	> 1 µM
REH (B-cell leukaemia, suspension)	0.983	> 1 µM	0.598	1.17 µM	0.936	> 10 µM	0.825	11.4 µM	0.97	> 10 µM	0.518	280 µM	0.137	0.0966 µM	0.95	> 5.12 µM	0.978	> 1 µM
